# In patent US20240025993A1, “CD19 BINDING MOLECULES AND USES THEREOF” (NOVARTIS AG, priority 2020, published 2024):
# Like-named read-outs stand apart in the source and are kept apart here. Marks after values point to notes of the source that are not given here.
# B1: CD3med TSP1: trispecific as CD3hi TSP1 but with medium affinity (CD3med) anti-CD3 scFv; R and H variants (antibody)
# heavy: QVQLVQSGAEVKKPGASVKVSCKASGYTFTTYWIQWVRQAPGQRLEWMGAVYPGDADTRYTQKFQGRVTLTADRSASTAYMELSSLRSEDTAVYYCGRDAGLEYYALDYWGQGTLVTVSSASTKGPSVFPLAPSSKSTSGGTAALGCLVKDYFPEPVTVSWNSGALTSGVHTFPAVLQSSGLYSLSSVVTVPSSSLGTQTYICNVNHKPSNTKVDKRVEPKSCGGGGSGGGGSEVQLVESGGGLVQPGGSLKLSCAASGFTFNTYAMNWVRQASGKGLEWVGRIRSKYNNYATYYADSVKDRFTISRDDSKNTAYLQMNSLKTEDTAVYYCVRHGNFGNSYVSWFAHWGQGTLVTVSSGGGGSGGGGSGGGGSGGGGSQAVVTQEPSLTVSPGGTVTLTCGSSTGAVTSSNYANWVQQKPGQAPRGLIGGTNKRAPWTPARFSGSLLGGKAALTLSGAQPEDEAEYYCALWYSNLWVFGGGTKLTVLGGGGSDKTHTCPPCPAPELLGGPSVFLFPPKPKDTLMISRTPEVTCVVVAVSHEDPEVKFNWYVDGVEVHNAKTKPREEQYASTYRVVSVLTVLHQDWLNGKEYKCKVSNKALAAPIEKTISKAKGQPREPQVCTLPPSREEMTKNQVSLSCAVKGFYPSDIAVEWESNGQPENNYKTTPPVLDSDGSFFLVSKLTVDKSRWQQGNVFSCSVMHEALHNHYTQKSLSLSPGK
# light: EIVMTQSPATLSVSPGERATLSCRASQDVGTAVAWYQQKPGQAPRLLIYWASTRHTGIPARFSGSGSGTEFTLTISSLQSEDFAVYFCQQYANFPLYTFGQGTKLEIKRTVAAPSVFIFPPSDEQLKSGTASVVCLLNNFYPREAKVQWKVDNALQSGNSQESVTEQDSKDSTYSLSSTLTLSKADYEKHKVYACEVTHQGLSSPVTKSFNRGEC
# chain: SQQIYGVVYGNVTFHVPSNVPLKEVLWKKQKDKVAELENSEFRAFSSFKNRVYLDTVSGSLTIYNLTSSDEDEYEMESPNITDTMKFFLYVLESGGGGSDKTHTCPPCPAPELLGGPSVFLFPPKPKDTLMISRTPEVTCVVVAVSHEDPEVKFNWYVDGVEVHNAKTKPREEQYASTYRVVSVLTVLHQDWLNGKEYKCKVSNKALAAPIEKTISKAKGQPREPQVYTLPPCREEMTKNQVSLWCLVKGFYPSDIAVEWESNGQPENNYKTTPPVLDSDGSFFLYSKLTVDKSRWQQGNVFSCSVMHEALHNHYTQKSLSLSPGK
# Experiments:
# [1] = test system: Daudi-Luc Burkitt's lymphoma subcutaneous tumor; assay: Daudi-Luc Burkitt's lymphoma subcutaneous tumor model, human PBMC adoptive transfer, NSG mice (Example 31); type: in vivo; settings: single dose IV; for Regression (%): Day 36
# Protocol: On Day 0, Daudi-Luc cells were harvested and suspended in a 1:1 mixture of Hanks Balanced Salt Solution (HBSS) and Matrigel at a concentration of 50×10^6 cells/mL.
# Tumor volume and body weights were recorded twice weekly. Tumor volume was measured by caliper.
# On day 36 following Daudi-Luc implantation, 25% of animals from the Tumor+AdT control group were euthanized due to tumor volume.
# T cells = assay: TBM and BBM binding to T cells by flow cytometry (Example 19); parameters: species or system human; settings: 33 μg/ml-0.005 μg/ml; H variants
# Protocol: Peripheral blood mononuclear cells (PBMCs) previously isolated and cryopreserved from 2 Leukopak donors (Hemacare) were thawed and Pan T cells were isolated by negative selection using the Pan T cell Isolation Kit, human (Miltenyi Biotec, Cat #130-096-535) following the manufacturer's protocol. T cells were resuspended in FACS Buffer and 100,000 cells were added to each well of a 96 well round bottom plate. A dilution series of CD3med TSP1, CD3hi TSP1, CD3hi BSP1, and CD3hi TSP1C ranging from 33 μg/ml-0.005 μg/ml was added to cells and incubated on ice for 1 hour. Cells were washed twice, resuspended in 100 pl of anti-human IgG secondary antibody and incubated on ice for another hour. After the incubation, cells were washed twice, resuspended in 100 pl of fixable viability dye and incubated on ice for 30 min. After washing twice again, cells were resuspended in 120 pl of FACS buffer. The cells were then run on BD LSR Fortessa and data was analyzed using FlowJo to determine the MFI of anti-human IgG secondary antibody, which was plotted against antibody concentration.
# Karpas 422 cells = assay: Re-challenge RTCC assay (Example 24); type: cell-based, human; settings: E:T 1:1; dose titration RTCC 2 nM-0.000001 nM; H variants
# Protocol: (§1) OCI-LY-19 and Karpas422 target cells stably expressing firefly luciferase were plated in a Costar 6 well plate in T Cell Media (TCM). PBMCs previously isolated and cryopreserved from 2 Leukopak donors were thawed and Pan T cells were isolated (as described earlier). […] The plates were incubated for 4 days for OCI-LY-19 and 5 days for Karpas 422 cells. At the end of incubation, the killing of target cells was determined using the luminescence signal. The absolute T cell counts from each antibody treated condition was also determined. For the next round of rechallenge, it was ensured that the killing of target cells was equivalent across various antibody conditions. […] Additionally, a dose titration RTCC at a E:T of 1:1 and a concentration range of 2 nM-0.000001 nM was set-up using T cells from the different antibody treated conditions with a 4 day incubation used for each cell line. The killing of target cells was determined using the luminescence signal to generate dose response curves. At the end of the challenge, the above process was repeated once more for Karpas 422 and twice more for OCI-LY-19 cells.
# OCI-LY-19 cells = assay: Re-challenge RTCC assay (Example 24); type: cell-based, human; settings: E:T 1:1; dose titration RTCC 2 nM-0.000001 nM; H variants
# Protocol: as §1
# Karpas422 target cells = assay: RTCC assay (Example 17); type: cell-based, human; settings: E:T 1:1, 96 hour; H variants
# Protocol: The purified TBMs were compared across multiple donor effector cells. Briefly, huCD19-expressing Nalm6 and Karpas422 target cells were engineered to overexpress firefly luciferase. Cells were harvested and resuspended in RPMI medium (Invitrogen #11875-093) with 10% FBS. 5,000 target cells per well were plated in a flat-bottom 384-well plate. Human pan T effector cells were isolated via negative selection (Stemcell Technologies #17951) from two donors from cryopreserved PBMCs that were separated from a leukopak (Hemacare #PB001F-1) by Ficoll density gradient centrifugation. Purified T cells were then added to the plate to obtain a final E:T ratio of 3:1, 1:1, 1:3 or 1:5. Co-cultured cells were incubated with serial dilutions of all constructs and controls. For normalization, average maximum luminescence refers to target cells co-incubated with effector cells, but without any test construct. After an incubation of 48, 72 or 96 hr at 37° C., 5% CO2, OneGlo luciferase substrate (Promega #E6120) was added to the plate. Luminescence was measured on an Envision plate reader after a 10 minute incubation. Percent specific lysis was calculated using the following equation: Specific lysis (%)=(1−(sample luminescence/average maximum luminescence))*100 […]
# [2] = test system: OCI-LY-19 diffuse large B-cell lymphoma tumor; settings: mouse, in vivo, iv
# Nalm6 target cells = assay: RTCC assay on multiple cell lines (Example 22); type: cell-based, human; settings: E:T 1:1, 48 hour; H variants
# Protocol: (§2) The purified TBMs were compared across multiple donor effector cells. Briefly, huCD19-expressing Nalm6 and Karpas422 target cells were engineered to overexpress firefly luciferase. Cells were harvested and resuspended in RPMI medium (Invitrogen #11875-093) with 10% FBS. 5,000 target cells per well were plated in a flat-bottom 384-well plate. Human pan T effector cells were isolated via negative selection (Stemcell Technologies #17951) from two donors from cryopreserved PBMCs that were separated from a leukopak (Hemacare #PB001F-1) by Ficoll density gradient centrifugation. Purified T cells were then added to the plate to obtain a final E:T ratio of 3:1, 1:1, 1:3 or 1:5. Co-cultured cells were incubated with serial dilutions of all constructs and controls. For normalization, average maximum luminescence refers to target cells co-incubated with effector cells, but without any test construct. After an incubation of 48, 72 or 96 hr at 37° C., 5% CO2, OneGlo luciferase substrate (Promega #E6120) was added to the plate. Luminescence was measured on an Envision plate reader after a 10 minute incubation. Percent specific lysis was calculated using the following equation: Specific lysis (%)=(1−(sample luminescence/average maximum luminescence))*100
# (§3) Nalm6 KO was generated from Nalm6 parental cell line by using CRISPR-CAS9 technology and was confirmed to lack hCD19 expression. Oci-Ly19, Toledo, Nalm6, Nalm6 KO and K562 target cells were engineered to overexpress firefly luciferase. RTCC assays were performed with the different cells lines according to the Materials and Methods described in Example 9, but with a final E:T ratio of 1:1 and a 48 hour incubation.
# Oci-Ly19 target cells = assay: RTCC assay on multiple cell lines (Example 22); type: cell-based, human; settings: E:T 1:1, 48 hour; H variants
# Protocol: as §2, §3
# Toledo target cells = assay: RTCC assay on multiple cell lines (Example 22); type: cell-based, human; settings: E:T 1:1, 48 hour; H variants
# Protocol: as §2, §3
# [3] = test system: OCI-LY-19 DLBCL subcutaneous tumor; assay: OCI-LY-19 DLBCL subcutaneous tumor model in huCD34+ NSG mice, single dose range finding (Example 30); settings: single dose IV; for ΔT/ΔC (%): Day 24
molecule,measurement,setting,value
B1,Δ Body weight from initial (%) (Mean ± SEM) Day 36,[1]; 0.1 mg/kg,0.165 ± 2.561%
same,Δ Tumor burden from initial (mm^3) (Mean) Day 36,[1]; 0.1 mg/kg,−19.77 mm^3
same,Regression (%),[1]; 0.1 mg/kg,13.51%
same,Δ Body weight from initial (%) (Mean ± SEM) Day 36,[1]; 0.3 mg/kg,3.214 ± 1.737%
same,Δ Tumor burden from initial (mm^3) (Mean) Day 36,[1]; 0.3 mg/kg,−124.57 mm^3
same,Regression (%),[1]; 0.3 mg/kg,85.13%
same,Δ Body weight from initial (%) (Mean ± SEM) Day 36,[1]; 1.0 mg/kg,3.839 ± 1.597%
same,Δ Tumor burden from initial (mm^3) (Mean) Day 36,[1]; 1.0 mg/kg,−132.92 mm^3
same,Regression (%),[1]; 1.0 mg/kg,90.86%
same,binding to T cells (MFI),T cells,strongest binder followed by CD3med TSP1
same,killing ability upon repeated challenges with target cells,Karpas 422 cells,next best
same,killing ability upon repeated challenges with target cells,OCI-LY-19 cells,next best
same,cytotoxic activity,Karpas422 target cells,show cytotoxic activity
same,Survival (survivors/total),[2]; 0.003 mg/kg,8/8
same,Survival (survivors/total),[2]; 0.01 mg/kg,8/8
same,Survival (survivors/total),[2]; 0.03 mg/kg,8/8
same,Survival (survivors/total),[2]; 0.1 mg/kg,8/8
same,Survival (survivors/total),[2]; 0.3 mg/kg,8/8
same,cytotoxic activity,Nalm6 target cells,showed cytotoxic activity
same,cytotoxic activity,Oci-Ly19 target cells,showed cytotoxic activity
same,cytotoxic activity,Toledo target cells,showed cytotoxic activity
same,Δ Body weight from initial (%) (Mean ± SEM) Day 24,[3]; 0.01 mg/kg,12.7 ± 1.8%
same,Δ Tumor burden from initial (mm^3) (Mean ± SEM) Day 24,[3]; 0.01 mg/kg,1139.3 ± 155.7 mm^3
same,ΔT/ΔC (%),[3]; 0.01 mg/kg,100%
same,Δ Body weight from initial (%) (Mean ± SEM) Day 24,[3]; 0.03 mg/kg,4.8 ± 3.7%
same,Δ Tumor burden from initial (mm^3) (Mean ± SEM) Day 24,[3]; 0.03 mg/kg,954.8 ± 180.1 mm^3
same,ΔT/ΔC (%),[3]; 0.03 mg/kg,90.3%
same,Δ Body weight from initial (%) (Mean ± SEM) Day 24,[3]; 0.1 mg/kg,0.3 ± 2.5%
same,Δ Tumor burden from initial (mm^3) (Mean ± SEM) Day 24,[3]; 0.1 mg/kg,843.2 ± 196.5 mm^3
same,ΔT/ΔC (%),[3]; 0.1 mg/kg,79.8%
same,Δ Body weight from initial (%) (Mean ± SEM) Day 24,[3]; 0.3 mg/kg,−3.0 ± 2.2%
same,Δ Tumor burden from initial (mm^3) (Mean ± SEM) Day 24,[3]; 0.3 mg/kg,284.0 ± 200.9 mm^3
same,ΔT/ΔC (%),[3]; 0.3 mg/kg,26.9%
same,Δ Body weight from initial (%) (Mean ± SEM) Day 24,[3]; 1.0 mg/kg,3.1 ± 2.5%
same,Δ Tumor burden from initial (mm^3) (Mean ± SEM) Day 24,[3]; 1.0 mg/kg,35.5 ± 57.6 mm^3
same,ΔT/ΔC (%),[3]; 1.0 mg/kg,0.05* %
